The full ranking holds about 33,000 sequences; the median of “E-score (-0.5 to 0.5)” is about -0.054, and the highest 2% start at about 0.35. Some of the results follow.
Molecular target: T1, Stb5 (UniProt P38699)
T1 sequence: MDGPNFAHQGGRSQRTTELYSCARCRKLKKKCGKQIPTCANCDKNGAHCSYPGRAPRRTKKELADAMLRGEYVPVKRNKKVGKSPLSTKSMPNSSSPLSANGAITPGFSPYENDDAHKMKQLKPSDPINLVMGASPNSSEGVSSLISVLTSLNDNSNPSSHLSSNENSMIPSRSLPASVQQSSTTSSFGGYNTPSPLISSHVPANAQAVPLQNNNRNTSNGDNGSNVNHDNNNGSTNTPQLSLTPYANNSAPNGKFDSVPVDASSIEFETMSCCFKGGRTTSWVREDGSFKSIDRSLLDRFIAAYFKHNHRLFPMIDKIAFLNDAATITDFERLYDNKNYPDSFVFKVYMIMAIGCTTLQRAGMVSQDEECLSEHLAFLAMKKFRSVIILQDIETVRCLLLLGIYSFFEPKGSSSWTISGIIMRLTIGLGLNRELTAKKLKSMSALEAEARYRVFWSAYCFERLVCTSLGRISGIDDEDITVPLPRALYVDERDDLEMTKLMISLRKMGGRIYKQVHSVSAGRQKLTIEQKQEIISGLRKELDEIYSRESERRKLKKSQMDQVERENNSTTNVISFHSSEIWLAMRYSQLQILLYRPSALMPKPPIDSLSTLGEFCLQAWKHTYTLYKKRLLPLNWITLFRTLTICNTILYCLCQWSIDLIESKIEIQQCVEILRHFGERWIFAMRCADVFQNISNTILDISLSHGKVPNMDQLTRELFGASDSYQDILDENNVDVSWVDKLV
Assay: PBM E-score (8-mer binding enrichment) (E-score (-0.5 to 0.5)); higher = stronger / more preferred TF binding; most listed sequences are background and not binding sites
Conditions: protein concentration: 200 nM; construct: GST-full length
Experimental: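 Universal 'all 10-mer' protein binding microarrays (Agilent AMADID 015681) probed with GST-tagged S. cerevisiae TFs (full-length or DBD) made by in vitro transcription/translation (PURExpress), about 100-200 nM. Bound TF was detected with fluorescent anti-GST. Each ungapped 8-mer (which stands for itself and its reverse complement) is scored by the PBM enrichment score (E-score), a modified Wilcoxon-Mann-Whitney statistic from -0.5 to +0.5, computed with the Universal PBM Analysis Suite. Scale: above 0.35 generally sequence-specific binding.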

Row | Sequence | PBM E-score
1 | CGGTCGGC | 0.352
2 | AACCCGTG | -0.0372
3 | AACTTGCC | -0.0885
4 | CGAAGTTC | -0.147
5 | GAACTCGA | -0.163
6 | AGAAAAGA | -0.0868
7 | CACCAATG | 0.0086
8 | AGAGTCGG | 0.252
9 | TCTACGCA | -0.141
10 | CCGATGGA | 0.307
11 | GAAGACAC | 0.161
12 | CGTTTAAA | 0.185
13 | AATGCACG | 0.031
14 | AGTTTAGC | 0.0316
15 | CAGTTTAC | -0.261
16 | GACCTCGC | -0.00357
17 | CAAAATCC | 0.182
18 | ATAACCAA | -0.156
19 | ATAATCCC | 0.389
20 | AAGTCACG | 0.0981
21 | AGCCACAA | 0.0182
22 | CACAGCAA | 0.0324

Row | Sequence | PBM E-score
23 | ACTGCTAT | -0.214
24 | CGACTCAA | -0.0531
25 | GTCCCCGA | 0.185
26 | CGACGTAA | 0.0466
27 | ACCGGTAT | 0.336
28 | CGGTAAAC | 0.0925
29 | AATGGCGC | 0.118
30 | AAGGTGGA | -0.0638
31 | AGACATCG | -0.183
32 | ATCCTGAA | -0.247
33 | ATGCCAAA | -0.218
34 | CGATTACA | 0.0159
35 | TACCATCA | -0.228
36 | ATAATAAA | 0.179
37 | CGCTTTGA | 0.0497
38 | AGGGGACC | -0.0462
39 | GCCTACTA | -0.173
40 | ATTAGTTG | -0.148
41 | CTAATACC | 0.261
42 | ACTAGTCC | 0.122
43 | AACTCGCG | -0.0104
44 | GGGTAAGA | 0.00203

Row | Sequence | PBM E-score
45 | GCGCAAGC | -0.0451
46 | ACACCAGC | -0.14
47 | ACGCTTAA | -0.31
48 | TAGACTCA | -0.131
49 | ACTCGGTC | 0.147
50 | GCATAAAC | -0.0373
51 | ATCCTGTC | 0.0461
52 | AACATAGT | 0.00286
53 | ATAGCTCA | -0.209
54 | CACTAAGA | -0.0925
55 | CGGGCCAA | 0.22
56 | AAAAAGAC | 0.0177
57 | AGCTGATA | 0.0497
58 | TCAGACGA | -0.249
59 | CACATCAC | -0.0565
60 | AAGAGGAC | -0.134
61 | CTAAGTAC | 0.0899
62 | AGAGCAAT | -0.0796
63 | AAGAGCGG | 0.333
64 | TCACCCGA | 0.089
65 | CACCTTTC | -0.058
66 | ATATTTAA | -0.0163

Row | Sequence | PBM E-score
67 | GACATTGC | -0.109
68 | ATGGTCCC | -0.0702
69 | CGGTACTC | 0.201
70 | GGCGTGTA | 0.0147
71 | ATCGTAAA | -0.299
72 | GCAACGCA | -0.0493
73 | CTGGGTGA | -0.179
74 | CGGTGTCC | 0.369
75 | AAGATAAC | 0.00498
76 | TGCCCTAA | -0.114
77 | ACTTTTTA | -0.0299
78 | GCAGCGCC | 0.184
79 | ACGTAGCT | -0.182
80 | AAATCTAA | -0.248
81 | AGTTTTGA | -0.0632
82 | ACTCCAAC | -0.0394
83 | GATCCTCC | -0.0359
84 | ACTCTAAT | -0.173
85 | GCAGCAAA | -0.235
86 | GGGATTGA | -0.157

Reference: the supplement of paper PMC3334620
